The target of the test is human Cav2.2 (Homo sapiens, UniProt Q00975). Briefly: In vitro assessment of calcium channel activity using FLIPR (Ca2+ influx in IMR32 cells). The test is classed as cell-based. The note with it: IMR32 cells endogenously expressing human Cav2.2; 60 minute pre-incubation; 2 μM nifedipine; depolarized with 80 mM KCl; average of at least two runs unless marked (*). As to the method: (i) In Vitro Assessment of Calcium Channel Activity Using FLIPR
The IMR32 cells were maintained in MEM media containing 10% (v/v) FBS, 1% (v/v) antibiotic/antimitotic, 1% (v/v) sodium pyruvate and 1% (v/v) MEM NEAA. Following dissociation in 0.05% (v/v) trypsin/EDTA, cells were seeded into black 1×96-well plates (Corning Cellbind) at a density of 1-1.2×10^5 cells/well and incubated in the maintenance media above for 48 hours at 37° C. Immediately prior to performing the assay the media was removed and cells were loaded for 1.5 hours with 1× Calcium 4 dye prepared in HBSS (137 mM NaCl, 5.4 mM KCl, 0.25 mM Na2HPO4, 0.44 mM KH2PO4, 1.3 mM CaCl2, 1 mM MgSO4, 4.2 mM NaHCO3) containing HEPES pH 7.4 at room temperature. After dye loading and a subsequent 60 minute pre-incubation with compounds (full log dilutions from 10 μM to 0.1 nM) in the presence of 1.3 mM CaCl2 and 2 μM nifedipine to block endogenous L-type channels, the external Ca^2+concentration was increased to 5 mM CaCl2 and the cells concomitantly depolarized with 80 mM KCl to assay channel activity. To determine the IC50 values, the percent inhibition of the compound at each concentration was determined relative to the activity in the absence of inhibitor, and data was fitted using non-linear regression sigmoidal dose response curve analysis with GraphPad Prism®. Unless otherwise indicated (*), the reported values are average values from at least two runs (i.e., n≧2).
For orientation: IC50 means the concentration needed to halve the response being measured. As to `O=S(=O)(Cc1ccc(Cl)cc1)N[C@@H]1CCN2CCN(c3cccc(C(F)(F)F)n3)C[C@@H]12` (relative stereo) [Example 96, 1-(4-chlorophenyl)-N-{(8R*,8aS*)-2-[6-(trifluoromethyl)pyridin-2-yl]-octahydropyrrolo[1,2-a]pyrazin-8-yl}methanesulfonamide], the IC50 came to 1.83 µM.
Then `O=S(=O)(Cc1ccc(Cl)cc1)N[C@@H]1CCN2CCN(c3cccc(C(F)(F)F)n3)C[C@H]12` (relative stereo) [Example 97, 1-(4-chlorophenyl)-N-{(8R*,8aR*)-2-[6-(trifluoromethyl)pyridin-2-yl]-octahydropyrrolo[1,2-a]pyrazin-8-yl}methanesulfonamide], with 1.37 µM.
As for `O=C(N[C@@H]1CCN2CCN(c3cccc(C(F)(F)F)n3)C[C@@H]12)c1cccc(F)c1` (relative stereo) [Example 98, 3-fluoro-N-{(8R*,8aS*)-2-[6-(trifluoromethyl)pyridin-2-yl]-octahydropyrrolo[1,2-a]pyrazin-8-yl}benzamide], the IC50 worked out at 2.39 µM.
With `O=C(N[C@@H]1CCN2CCN(c3cccc(C(F)(F)F)n3)C[C@H]12)c1cccc(F)c1` (relative stereo) [Example 99, 3-fluoro-N-{(8R*,8aR*)-2-[6-(trifluoromethyl)pyridin-2-yl]octahydro-pyrrolo[1,2-a]pyrazin-8-yl}benzamide], the IC50 came out at 2.67 µM.
In the case of `O=C(c1cccc(C(F)(F)F)c1)N1CCN2CC[C@@H](Oc3ccc(Cl)cn3)[C@@H]2C1` (relative stereo) [Example 100, [(8R*,8aS*)-8-[(5-chloropyridin-2-yl)oxy]hexahydropyrrolo[1,2-a]pyrazin-2(1H)-yl][3-(trifluoromethyl)phenyl]methanone], the IC50 turned out to be 2.16 µM.
`O=C(c1cccc(C(F)(F)F)c1)N1CCN2CC[C@@H](Oc3ccc(Cl)cn3)[C@H]2C1` (relative stereo) [Example 101, [(8R*,8aR*)-8-[(5-chloropyridin-2-yl)oxy]hexahydropyrrolo[1,2-a]pyrazin-2(1H)-yl][3-(trifluoromethyl)phenyl]methanone]: the IC50 was found to be 3.67 µM.
As for `FC(F)(F)c1cccc(N2CCN3CC[C@@H](Oc4ccc(Cl)cn4)[C@H]3C2)n1` (relative stereo) [Example 102, (8R*,8aR*)-8-[(5-chloropyridin-2-yl)oxy]-2-[6-(trifluoromethyl)pyridin-2-yl]octahydropyrrolo[1,2-a]pyrazine], the IC50 stood at 1.06 µM.
Then `FC(F)(F)c1ccc(N2CCN3CC[C@@H](Oc4ccc(Cl)cn4)[C@H]3C2)nc1` (relative stereo) [Example 103, (8R*,8aR*)-8-[(5-chloropyridin-2-yl)oxy]-2-[5-(trifluoromethyl)pyridin-2-yl]octahydropyrrolo[1,2-a]pyrazine], with 2.3 µM; and `FC(F)(F)c1ccnc(N2CCN3CC[C@@H](Oc4ccc(Cl)cn4)[C@H]3C2)c1` (relative stereo) [Example 104, (8R*,8aR*)-8-[(5-chloropyridin-2-yl)oxy]-2-[4-(trifluoromethyl)pyridin-2-yl]octahydropyrrolo[1,2-a]pyrazine], with 7.29 µM.
Turning to `O=C1[C@H]2C[C@@H](Oc3cnc(C4CC4)cn3)CN2CCN1Cc1cccc(C(F)(F)F)c1` (single isomer, unassigned) [Example 164], the IC50 was 3.53 µM.
`O=C1[C@@H]2C[C@@H](Oc3cnc(C4CC4)cn3)CN2CCN1Cc1ccc(C(F)(F)F)cc1` (single isomer, unassigned) [Example 166]: the IC50 was 2.46 µM.
In the case of `O=C1[C@H]2C[C@@H](Oc3cnc(C4CC4)cn3)CN2CCN1Cc1ccc(C(F)(F)F)cc1` (single isomer, unassigned) [Example 167], the IC50 was 3.4 µM.
Under `O=C1[C@@H]2C[C@@H](Oc3cnc(C4CC4)cn3)CN2CCN1c1cccc(C(F)(F)F)n1` (single isomer, unassigned) [Example 170] stands 7.56 µM; under `O=C1[C@@H]2C[C@@H](Oc3cnc(C4CC4)cn3)CN2CCN1c1ccc(C(F)(F)F)cn1` (single isomer, unassigned) [Example 171], over 30 µM.
Then `O=C1[C@H]2C[C@@H](Oc3cnc(C4CC4)cn3)CN2CCN1c1ccc(C(F)(F)F)cn1` (single isomer, unassigned) [Example 172], with 9.4 µM.
As for `O=C1[C@H]2C[C@@H](Oc3cnc(C4CC4)cn3)CN2CCN1c1cccc(C(F)(F)F)n1` (single isomer, unassigned) [Example 173], the IC50 was found to be 8.3 µM.
For `CC(C)(C)OC(=O)N1CCN2C[C@@H](NC(=O)c3ccc(F)cc3)C[C@H]2C1` [Example 1, tert-butyl (7S,8aS)-7-[(4-fluorobenzoyl)amino]hexahydropyrrolo[1,2-a]pyrazine-2(1H)-carboxylate], the IC50 is over 30 µM.
As for `O=C(N[C@H]1C[C@H]2CN(C(=O)c3cccc(C(F)(F)F)c3)CCN2C1)c1ccc(F)cc1` [Example 2, 4-fluoro-N-{(7S,8aS)-2-[3-(trifluoromethyl)benzoyl]octahydropyrrolo[1,2-a]pyrazin-7-yl}benzamide], the IC50 is 7.22 µM.
In the case of `O=C(N[C@H]1C[C@H]2CN(C(=O)c3ccc(C(F)(F)F)cc3)CCN2C1)c1ccc(F)cc1` [Example 3, 4-fluoro-N-{(7S,8aS)-2-[4-(trifluoromethyl)benzoyl]octahydropyrrolo[1,2-a]pyrazin-7-yl}benzamide], the IC50 stood at 12.5 µM.
For the compound `O=C(N[C@H]1C[C@H]2CN(C(=O)c3cccc(C(F)(F)F)c3)CCN2C1)c1ccc(Cl)cc1` [Example 4, 4-chloro-N-{(7S,8aS)-2-[3-(trifluoromethyl)benzoyl]octahydropyrrolo[1,2-a]pyrazin-7-yl}benzamide], the 50% inhibitory concentration (IC50) worked out at 4.22 µM.
As to `O=C(N[C@H]1C[C@H]2CN(C(=O)c3ccc(C(F)(F)F)cc3)CCN2C1)c1ccc(Cl)cc1` [Example 5, 4-chloro-N-{(7S,8aS)-2-[4-(trifluoromethyl)benzoyl]octahydropyrrolo[1,2-a]pyrazin-7-yl}benzamide], the IC50 was 6.88 µM.
`CC(C)(C)NC(=O)CN1CCN2C[C@@H](NC(=O)c3ccc(Cl)c(Cl)c3)C[C@H]2C1` [Example 6, N-{(7S,8aS)-2-[2-(tert-butylamino)-2-oxoethyl]octahydropyrrolo[1,2-a]-pyrazin-7-yl}-3,4-dichlorobenzamide]: the IC50 was found to be 10.5 µM.
Under `O=C(N[C@H]1C[C@H]2CN(C(=O)c3cccc(C(F)(F)F)c3)CCN2C1)c1ccc(F)c(Cl)c1` [Example 7, 3-chloro-4-fluoro-N-{(7S,8aS)-2-[3-(trifluoromethyl)benzoyl]-octahydropyrrolo[1,2-a]pyrazin-7-yl}benzamide] stands 2.53 µM; under `O=C(N[C@H]1C[C@H]2CN(C(=O)c3ccc(C(F)(F)F)cc3)CCN2C1)c1ccc(F)c(Cl)c1` [Example 8, 3-chloro-4-fluoro-N-{(7S,8aS)-2-[4-(trifluoromethyl)benzoyl]-octahydropyrrolo[1,2-a]pyrazin-7-yl}benzamide], 2.12 µM.
As for `O=C(N[C@H]1C[C@H]2CN(C(=O)c3cccc(C(F)(F)F)c3)CCN2C1)c1ccc(Cl)cc1F` [Example 9, 4-chloro-2-fluoro-N-{(7S,8aS)-2-[3-(trifluoromethyl)benzoyl]octahydro-pyrrolo[1,2-a]pyrazin-7-yl}benzamide], the IC50 was 5.37 µM.
Take `O=C(N[C@H]1C[C@H]2CN(C(=O)c3ccc(Cl)cc3)CCN2C1)c1cccc(C(F)(F)F)c1` [Example 10, N-[(7S,8aS)-2-(4-chlorobenzoyl)octahydropyrrolo[1,2-a]pyrazin-7-yl]-3-(trifluoromethyl)benzamide]: the IC50 worked out at 5.9 µM.
In the case of `O=C(N[C@H]1C[C@H]2CN(C(=O)c3ccc(F)cc3)CCN2C1)c1cccc(C(F)(F)F)c1` [Example 11, N-[(7S,8aS)-2-(4-fluorobenzoyl)octahydropyrrolo[1,2-a]pyrazin-7-yl]-3-(trifluoromethyl)benzamide], the IC50 stood at 11.8 µM.
With `O=C(N[C@H]1C[C@H]2CN(C(=O)c3ccc(F)cc3Cl)CCN2C1)c1cccc(C(F)(F)F)c1` [Example 12, N-[(7S,8aS)-2-(2-chloro-4-fluorobenzoyl)octahydropyrrolo[1,2-a]pyrazin-7-yl]-3-(trifluoromethyl)benzamide], the concentration for half-maximal inhibition (IC50) was found to be 11.5 µM.
For the compound `O=C(N[C@H]1C[C@H]2CN(C(=O)c3cccnc3)CCN2C1)c1cccc(C(F)(F)F)c1` [Example 13, N-[(7S,8aS)-2-(pyridin-3-ylcarbonyl)octahydropyrrolo[1,2-a]pyrazin-7-yl]-3-(trifluoromethyl)benzamide], the IC50 is over 30 µM.
Consider `O=C(N[C@H]1C[C@H]2CN(C(=O)c3ccc(Cl)cc3F)CCN2C1)c1cccc(C(F)(F)F)c1` [Example 14, N-[(7S,8aS)-2-(4-chloro-2-fluorobenzoyl)octahydropyrrolo[1,2-a]pyrazin-7-yl]-3-(trifluoromethyl)benzamide], for which the IC50 worked out at 3.25 µM.
`O=C(N[C@H]1C[C@H]2CN(C(=O)c3ccc(Cl)c(F)c3)CCN2C1)c1cccc(C(F)(F)F)c1` [Example 15, N-[(7S,8aS)-2-(4-chloro-3-fluorobenzoyl)octahydropyrrolo[1,2-a]pyrazin-7-yl]-3-(trifluoromethyl)benzamide]: the IC50 amounted to 4.29 µM.
